Source: paper PMC7819943, “Rice protein-binding microarrays: a tool to detect cis-acting elements near promoter regions in rice”
Some of the results follow.

target: T1, OsWOX13 (Oryza sativa, UniProt Q5QMM3 1-267); assay: protein-binding microarray (RPBM); PBS, 2% BSA, 51.3 ng/ul salmon testes DNA, 50 uM zinc acetate, 200 nM TF, 25 C, 1 h; high values mean tight binding; details: protein: recombinant; tags: N-terminal polyhistidine and DsRed monomer fusion (pET32a); label: CyDye5-dUTP incorporated in the synthesized complementary strand; 3' TTTTT single-stranded linker to array surface; dsDNA, one strand shown
T1 sequence: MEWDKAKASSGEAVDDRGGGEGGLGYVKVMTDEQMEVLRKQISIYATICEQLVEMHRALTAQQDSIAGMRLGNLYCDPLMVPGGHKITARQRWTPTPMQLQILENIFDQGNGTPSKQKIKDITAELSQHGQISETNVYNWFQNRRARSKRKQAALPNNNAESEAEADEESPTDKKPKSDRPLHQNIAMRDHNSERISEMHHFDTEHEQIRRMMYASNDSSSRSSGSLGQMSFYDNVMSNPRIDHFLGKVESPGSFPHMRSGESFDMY
In short: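 Transcription factors were each fused at the N-terminus to a polyhistidine tag plus DsRed and expressed in E. coli BL21-CodonPlus before Ni–NTA purification. Binding to a double-stranded custom Agilent array was carried out with 200 nM protein at 25 °C for 1 h in PBS, 2% BSA, salmon testes DNA and 50 µM zinc acetate. The binding signal is per-feature fluorescence intensity, in arbitrary units, on an Axon 4000B scanner.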

Sequence	binding signal
TCAAACTTAACAGCGTTTGATCCATTCACATCCGGCCCATCGGAGTCACCTAGTGCAG	3710 fluorescence intensity (a.u.)
CAAATTGATACCGGCCGAGTTGTGAATGGAAGAGAATCTGCGGAGTCACCTAGTGCAG	13500 fluorescence intensity (a.u.)
GGGATGATTTTGTAACTCGATGACAAGTTGAGGGACCTTTCGGAGTCACCTAGTGCAG	15100 fluorescence intensity (a.u.)
ATTCTTTCCTCAATCAAACCAACCCTTCTCTTCTCCACAGCGGAGTCACCTAGTGCAG	3220 fluorescence intensity (a.u.)
TTAATGATGACAGGAAAATCAACTATATATTGGGTTATCCCGGAGTCACCTAGTGCAG	23800 fluorescence intensity (a.u.)
AGGAAATGTGTGATTGGTTGATAAGTAAAAGTAGGTAAAGCGGAGTCACCTAGTGCAG	37800 fluorescence intensity (a.u.)
GGACTGGTGATGGACAATCTCAAGATTTCCATATAAATGGCGGAGTCACCTAGTGCAG	9840 fluorescence intensity (a.u.)
ACCATGATGGGCTCTAACTCTAAAGCCCATCAGACTCAAGCGGAGTCACCTAGTGCAG	4260 fluorescence intensity (a.u.)
TTGTGCACTTGTGATTGCTTGAGGTGTACTGCACATAAGACGGAGTCACCTAGTGCAG	3640 fluorescence intensity (a.u.)
AGGATAAAATTTCTGCAATTATTGGGGTACGGTCCACCTACGGAGTCACCTAGTGCAG	4490 fluorescence intensity (a.u.)
TGCTGACAGATTCTAACACAGCCAACCATATGCAATGCAACGGAGTCACCTAGTGCAG	25300 fluorescence intensity (a.u.)
AGTTTTAGCCTAAATTGGGTAAATTATATTTTAACCGTAACGGAGTCACCTAGTGCAG	11600 fluorescence intensity (a.u.)
GGAGAGATTAAGGGAATAATTGCCCGGACACCTCTCGGTTCGGAGTCACCTAGTGCAG	5680 fluorescence intensity (a.u.)
CTCTCTAAAATTAGTTTAATTATACTATAACTCGTATATACGGAGTCACCTAGTGCAG	5850 fluorescence intensity (a.u.)
CTTTCATGGTGATTTGCTCTTCTTGTTTGCATGCATGCACCGGAGTCACCTAGTGCAG	10800 fluorescence intensity (a.u.)
TTGCAACAAAGTGAAATGCTAATTGGAACATTCATTTCTGCGGAGTCACCTAGTGCAG	3330 fluorescence intensity (a.u.)
TTTGGTTAATTACGCACCGGTCCCCGCTAATATCCGCCGTCGGAGTCACCTAGTGCAG	16300 fluorescence intensity (a.u.)
AAGACTAAAGGCTCAATTGATTGGACGGGAGATATGAAAACGGAGTCACCTAGTGCAG	9490 fluorescence intensity (a.u.)
CCAGCTGAGAAATTGATTGATGTATAGCACTCCGATCTTCCGGAGTCACCTAGTGCAG	21900 fluorescence intensity (a.u.)
TTGATAGGATTTCTTATATAGTACCAAAATTTAACAGCAACGGAGTCACCTAGTGCAG	3910 fluorescence intensity (a.u.)
GGTAATTAAAGGGGTGTTTATATCTCGGTTGTAAAGGGTTCGGAGTCACCTAGTGCAG	13000 fluorescence intensity (a.u.)

Sequence	binding signal
GACCGACCCTGCTAACTAAATTAATTTTACATTTCCTTCACGGAGTCACCTAGTGCAG	5990 fluorescence intensity (a.u.)
GCAGTATGATTAGCTTCAGAGCAACAATAAACCAGATGCTCGGAGTCACCTAGTGCAG	13700 fluorescence intensity (a.u.)
TTTACAACTAATTATTCTTTCAGTGGTAGACAACGTCGTCCGGAGTCACCTAGTGCAG	9430 fluorescence intensity (a.u.)
CTAATCAATAGACTGAAATTTGAACTATTTGTATCCATCCCGGAGTCACCTAGTGCAG	14000 fluorescence intensity (a.u.)
TTATGACCGGTTTTGATTAGTTAAGAGACGCCAGATATCTCGGAGTCACCTAGTGCAG	14300 fluorescence intensity (a.u.)
TATGGTCTGATTATTTGTCAGTACTTTGGATACACCAATTCGGAGTCACCTAGTGCAG	3480 fluorescence intensity (a.u.)
GCCGGTACATGAACCACATGATTGATTCCCCTCTTCCGCTCGGAGTCACCTAGTGCAG	17500 fluorescence intensity (a.u.)
CACCGATAATTGCGATATCTTATCATGTTACATCGCACGGCGGAGTCACCTAGTGCAG	24300 fluorescence intensity (a.u.)
CCTTTAAATTAGATTTCTTAGCATGTGTTCGTTATGTGTGCGGAGTCACCTAGTGCAG	38300 fluorescence intensity (a.u.)
ATGGGTCTGTCAATGAATTTTGACAAATCCTAAACGAAATCGGAGTCACCTAGTGCAG	5590 fluorescence intensity (a.u.)
ATTAATTAGGTTTGATCTCTTTAAAACAATTCCTCCTTCCCGGAGTCACCTAGTGCAG	24000 fluorescence intensity (a.u.)
GTAAATTGCGAGATGAATTTATTAAGCCTAATTAATCTGTCGGAGTCACCTAGTGCAG	26000 fluorescence intensity (a.u.)
ATATAAAATTTACAATGTAATATATGGAATTTATAGTGTACGGAGTCACCTAGTGCAG	4140 fluorescence intensity (a.u.)
TTAATATTTAATTAATTATATATTAATGGCTTACCTTATTCGGAGTCACCTAGTGCAG	27500 fluorescence intensity (a.u.)
GGAAACTGACGCATCAGATTTGGAGACTAGCAATGGAGTACGGAGTCACCTAGTGCAG	3600 fluorescence intensity (a.u.)
AACAAACAACTCAATTTATTTATCTTGTCATACGGCAATCCGGAGTCACCTAGTGCAG	3570 fluorescence intensity (a.u.)
TAGTAATTAAAACACAATTAATCATGCGCTAATAGCTTCCCGGAGTCACCTAGTGCAG	29000 fluorescence intensity (a.u.)
GTACCAATCGTCTCATCATGATCTAAGCCAAATCTAAACACGGAGTCACCTAGTGCAG	4310 fluorescence intensity (a.u.)
AAGCTAAATTAACTGAAAGTATCACATTAACTCGTAATTTCGGAGTCACCTAGTGCAG	22300 fluorescence intensity (a.u.)
AAATGATTGCATCACATTGACAAAATTGATAACGTATACACGGAGTCACCTAGTGCAG	32100 fluorescence intensity (a.u.)
AAAACCAGGTAATTAATTAAAAGCACATTTCGTGCGGTGGCGGAGTCACCTAGTGCAG	13800 fluorescence intensity (a.u.)

Sequence	binding signal
CTTAACTGAATAAACTGCCTGACTTTGGGACAATAGGTCACGGAGTCACCTAGTGCAG	39300 fluorescence intensity (a.u.)
AATCGTGACAGGTGATTCCACCAGCCGATCTTGACCGTTGCGGAGTCACCTAGTGCAG	7030 fluorescence intensity (a.u.)
CGTGGCCTCGCCGTATCAATCACGAGAAGGGGAGAAAAGTCGGAGTCACCTAGTGCAG	3860 fluorescence intensity (a.u.)
CATCTGATTACAACTATATAATCCAATCTGCTTAATAAAGCGGAGTCACCTAGTGCAG	19200 fluorescence intensity (a.u.)
GGTGGTTAAATACTCATCTTGATTGATTATCCTTTTCTTACGGAGTCACCTAGTGCAG	18600 fluorescence intensity (a.u.)
TTATGCCAAATCTAATACTTGATTACTACTCCATCCGTCCCGGAGTCACCTAGTGCAG	3980 fluorescence intensity (a.u.)
ATCTAAGTATGATTAGCATACTATGACATCTATAGACACGCGGAGTCACCTAGTGCAG	15800 fluorescence intensity (a.u.)
ATTTATTAAATCTAATTAATTCATTATTAGTAAATATTTACGGAGTCACCTAGTGCAG	5100 fluorescence intensity (a.u.)
TGTCAATTTGTATTTTGAAGGGTTGGTCCAATACACTAAGCGGAGTCACCTAGTGCAG	4980 fluorescence intensity (a.u.)
TTTCATTTTAATTGATGTTTTGGACAATACACGGTCTACCCGGAGTCACCTAGTGCAG	29300 fluorescence intensity (a.u.)
CCCAACGATAATTATGTTTCATTCTCAATGGCAGTAAAAGCGGAGTCACCTAGTGCAG	14400 fluorescence intensity (a.u.)
ATTGATTGATCAAGACTGCATGGCAATACTCGACGTGCTGCGGAGTCACCTAGTGCAG	64800 fluorescence intensity (a.u.)
AAAAGATAAATTTACATATAAACAGTACGCTACTATTTATCGGAGTCACCTAGTGCAG	6070 fluorescence intensity (a.u.)
GACTAATTAACCGCCAACCCCACTACCGCCTCTCTCTTTGCGGAGTCACCTAGTGCAG	35000 fluorescence intensity (a.u.)
GGTTGTTAATTTAGAGTGTGGTTGAGCAAACCCTCAACTCCGGAGTCACCTAGTGCAG	7780 fluorescence intensity (a.u.)
TCAAAATTTCAATGAAAATTTTCTCTCCTTGCCACTTCAACGGAGTCACCTAGTGCAG	3500 fluorescence intensity (a.u.)
AATAAATTACCCATACATCTGCGCGGGCTTTCTTCCTAGTCGGAGTCACCTAGTGCAG	20400 fluorescence intensity (a.u.)
GTAGTTAATTATGAAACGTTTAGAAAATATATTTATAAGACGGAGTCACCTAGTGCAG	5580 fluorescence intensity (a.u.)
GCTGACGTAGATAATCTTATGCTTTCAAATTTTACGATAGCGGAGTCACCTAGTGCAG	5670 fluorescence intensity (a.u.)
AAGATTAATAATACTACTAATTATAACTCATTTCGTGTGACGGAGTCACCTAGTGCAG	6850 fluorescence intensity (a.u.)
GATGATTATCATGGGATGCTTCATTTGATAATCTTAGAAACGGAGTCACCTAGTGCAG	14400 fluorescence intensity (a.u.)

Sequence	binding signal
CCTCCGAATATTCAATTTGTTGAGTTATTGACGTATAGATCGGAGTCACCTAGTGCAG	4190 fluorescence intensity (a.u.)
GAATATATATAATTTATAATTTACTAAAATTTGATATTAACGGAGTCACCTAGTGCAG	8740 fluorescence intensity (a.u.)
TCCTTCATAATTACCTCGCTTCAAAGGACGCAAATATAGTCGGAGTCACCTAGTGCAG	5810 fluorescence intensity (a.u.)
TCTATCCTTAATCAATCTGTTGCATGTCCGCATTTGTTAGCGGAGTCACCTAGTGCAG	4620 fluorescence intensity (a.u.)
GATTCTGATTATATATATCGAAATAAAGAAATATTATTGTCGGAGTCACCTAGTGCAG	11200 fluorescence intensity (a.u.)
TGGTGTTAATATGAAATTTCATCAATTTAAAACTAGCCTCCGGAGTCACCTAGTGCAG	12000 fluorescence intensity (a.u.)
GTTATGATTTAAATATCAATATTGAAAATTAAATTTATATCGGAGTCACCTAGTGCAG	15600 fluorescence intensity (a.u.)
TCAATAGAAAATAAACTGATTCATGTTAAAACCTTCACACCGGAGTCACCTAGTGCAG	5530 fluorescence intensity (a.u.)
ATTTTACTCTTAGCAATCAATTTAGCATATTTATCTATTCCGGAGTCACCTAGTGCAG	5790 fluorescence intensity (a.u.)
TTTCTTCATAGATTGAAGCTCTTGTTAAGTTTGAAACCTACGGAGTCACCTAGTGCAG	4020 fluorescence intensity (a.u.)
AATTAAAATGGAAGGAATTACATTAACTATGAATTCATTGCGGAGTCACCTAGTGCAG	5160 fluorescence intensity (a.u.)
TTCCAATCACACAAGTCAGTCCAGATGTCATCAAATACAGCGGAGTCACCTAGTGCAG	17400 fluorescence intensity (a.u.)
ATGAGTTTAATTTGGGTGTTTGACGAGAGCGAAGAGTCGACGGAGTCACCTAGTGCAG	6460 fluorescence intensity (a.u.)
ACTGCTAAATTTATGAAAATAAGAAGAGAGAAATTGGTTACGGAGTCACCTAGTGCAG	4730 fluorescence intensity (a.u.)
ACCTACTCACAATCACAGAATCACATCATAACATTATTGTCGGAGTCACCTAGTGCAG	4160 fluorescence intensity (a.u.)
GCTGATGAGTTTGTGAAACTGTTTCAGCAAGAGTATGGCTCGGAGTCACCTAGTGCAG	11600 fluorescence intensity (a.u.)
ATCATAATTTGAAATTCAAATTCATACTGTTCAAACAAAGCGGAGTCACCTAGTGCAG	17600 fluorescence intensity (a.u.)
CTCCCTTTAATTATCATCACAAGACCTCTCTCTCTCTCTCCGGAGTCACCTAGTGCAG	12800 fluorescence intensity (a.u.)
TGGACAAATTGTGATGATTTGATGAAGATCACATTCTAAACGGAGTCACCTAGTGCAG	30200 fluorescence intensity (a.u.)
TATGATGTGCACTGATGATGAATTGTTTCGTTCTCCGAAGCGGAGTCACCTAGTGCAG	9200 fluorescence intensity (a.u.)
CACTCATTCACCTTTACTAATTTATATCTTTTGATGTTTGCGGAGTCACCTAGTGCAG	7260 fluorescence intensity (a.u.)
